Several values for one entry are separate records, joined by “and”; a condition that tells them apart may be missing. Equal entries are not always repeated. This list was built around the results that the source calls inconclusive (neither active nor inactive); the mix of calls is not that of the screen. A potency beside an inconclusive call is a rough fit, not a confirmed value. Activity calls are given as the source filed them. The call rests on the fitted dose curve; in most records, active means well fitted cell-killing curve with a large enough effect; inconclusive means small, poorly fitted or top-dose-only effect, or effect the other way; inactive means no such curve, though single readings can be large or run the other way.
How the values were obtained:
[1] = Viability qHTS for spleen associated tyrosine kinase inhibitor (SYKi) naive MV4-11 cells (AID 1963823); details: MV4-11 AML viability, CellTiter-Glo luminescence, 72 h; viability (% of control): at 45 µM (top of the series); further: nearly all actives have a fitted effect of over 40% in size
Procedure, shortened: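 Luminescence from CellTiter-Glo, developed 10 min at room temperature, gave viability of MV4-11 cells never exposed to SYK inhibitor. Cells (500/well) had been incubated with compounds for 72 hr under standard culture conditions.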

[2] = Viability qHTS for spleen associated tyrosine kinase inhibitor (SYKi) drug resistant MV4-11 cells (AID 1963824); details: SYKi-resistant MV4-11 viability, CellTiter-Glo, 72 h; series mostly up to 45 µM; further: nearly all actives have a fitted effect of over 35% in size
Procedure, shortened: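 SYK-inhibitor-resistant MV4-11 AML cells were seeded at 500 per well onto compound and cultured 72 hours (37 °C, 5% CO2). CellTiter-Glo was then added, and after 10 min at room temperature, luminescence gave viability.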
Potency means the concentration at half of the fitted maximal effect; tags describe the fitted curve by direction and shape.

| SMILES | Potency [1] | Potency [2] | viability (% of control) [1] | viability, % of control [2] |
| --- | --- | --- | --- | --- |
| C=C(C)[C@@]1(O)C[C@@]2(C)C(=CC1=O)CC[C@@H](O)[C@@H]2C | inconclusive: 0.0164 µM [cytotoxic, single point] | inactive | – | – |
| CCOC(CN1CCN(CC(C)C(=O)c2ccccc2)CC1)c1ccccc1 (stereo not given) | inconclusive: 6.51 µM [cytotoxic, partial curve, poor fit] and inconclusive: 23.1 µM [cytotoxic, single point] | inconclusive: 366 nM [cytotoxic, partial curve, poor fit] and inconclusive: 29.1 µM [cytotoxic, single point] | – | – |
| N#Cc1ccc(N2N=C3c4ccc(C(=O)O)cc4CC[C@@H]3[C@@H]2C2CCCC2)cc1Cl | inconclusive: 23.1 µM [cytotoxic, single point] | inconclusive: 14.6 µM [cytotoxic, partial curve] | – | – |
| O=C(O)CCCCCCCC(=O)O | inactive | inactive | – | – |
| COc1ccc2nccc(C(=O)CC[C@@H]3CCN(CC#Cc4cc(F)cc(F)c4F)C[C@@H]3C(=O)O)c2c1 | inconclusive: 14.6 µM [cytotoxic, partial curve, poor fit] | inconclusive: 14.6 µM [cytotoxic, partial curve] | – | – |
| CC(C)(C)c1ccc2c(c1)CC[C@H]2NC(=O)Nc1cccc2[nH]ncc12 | inconclusive: 0.0046 µM [rising, full curve, poor fit] | inconclusive: 11.6 µM [cytotoxic, partial curve, poor fit] | – | – |
| C=C1CCC2C(C)(C)C(O)CCC2(C)C1CCC(C)CCOC(=O)CCC(=O)O (stereo not given) | inconclusive: 7.96 µM [cytotoxic, single point] | inconclusive: 12.6 µM [cytotoxic, single point] | – | – |
| CCO[C@H]1CN(C2CCC(O)(c3ccc4c(c3)OCO4)CC2)C[C@@H]1NC(=O)CNC(=O)c1cccc(C(F)(F)F)c1 (stereo not given in full) | inconclusive: 11.6 µM [cytotoxic, partial curve, poor fit] | inconclusive: 11.6 µM [cytotoxic, partial curve] | – | – |
| COc1ccc(C2(O)CCC(N3CC[C@@H](NC(=O)CNC(=O)c4cccc(C(F)(F)F)c4)C3)CC2)cn1 (stereo not given in full) | inconclusive: 18.4 µM [cytotoxic, partial curve] | inactive | – | – |
| CC(=C/C(=O)O)/C=C/[C@]1(O)[C@@]2(C)CO[C@]1(C)C[C@H](O[C@@H]1O[C@H](CO)[C@@H](O)[C@H](O)[C@H]1O)C2 | inconclusive: 0.796 µM [cytotoxic, partial curve, poor fit] | inconclusive: 0.0126 µM [cytotoxic, full curve, poor fit] | – | – |
| C=CC(C)(O)CO[C@@H]1O[C@H](CO)[C@@H](O)[C@H](O)[C@H]1O (stereo not given in full) | inactive | inactive | – | – |
| CCCCOC(=O)CCCCCCCCC(=O)OCCCC | inactive | inactive | – | – |
| CCCCC(O)/C=C(C)/C=C/C=C/C(=O)N1CCCC1=O (stereo not given) | inactive | inconclusive: 1.68 µM [cytotoxic, full curve, poor fit] | – | – |
| NC(Cc1ccc(Cl)cc1)C(=O)O (stereo not given) | – | – | inactive: 87.6% [at 0.588 µM] | inactive: 93.1% [at 0.588 µM] |
| C[C@@]12C(=O)N(c3ccc(C(=O)Nc4cccc5cccnc45)cc3)C(=O)[C@@H]1[C@@H]1C=C[C@H]2C1 | inconclusive: 20.6 µM [cytotoxic, single point] | inconclusive: 18.4 µM [cytotoxic, partial curve] | – | – |
| O=C(O)c1ccccc1S | inactive | inactive | – | – |
| Cc1onc(-c2ccccc2Cl)c1C(=O)N(C)c1ccc(Cl)cc1 | inconclusive: 8.2 µM [cytotoxic, partial curve] | inconclusive: 18.4 µM [cytotoxic, partial curve] | – | – |
| Cc1cc(Nc2nc(NC(C)c3ncc(F)cn3)ncc2Cl)n[nH]1 (stereo not given) | inconclusive: 7.31 µM [cytotoxic, partial curve] | inconclusive: 13 µM [cytotoxic, partial curve] | – | – |
| c1cnc(N2CCN(Cc3ccc4c(c3)OCO4)CC2)nc1 | inconclusive: 33.5 µM [cytotoxic, partial curve, poor fit] | inactive | – | – |
| CC(=O)N(O)CCCCCN1C(=O)CCC1=O | inactive | inactive | – | – |

From PubChem BioAssay (NCATS)
